PubChem BioAssay AID624417 (National Center for Advancing Translational Sciences (NCATS), 2012)
The campaign covered roughly 410,000 compounds. About 6,400 (1.6%) were called active. Inconclusive means that the source gave no clear call. Such entries were picked first, then a sample of the others. The call rests on the fitted dose curve; in most records, active means well fitted inhibition curve with a large enough effect; inconclusive means small, poorly fitted or top-dose-only effect; inactive means no such curve, though single readings can be large or run the other way. No potency is given beside an inconclusive call; the fits are too rough.

target: Glucagon-like peptide 1 receptor (Homo sapiens) (UniProt P43220); assay: qHTS of GLP-1 Receptor Inverse Agonists (Inhibition Mode); conditions: HEK293 GLP-1R CRE-luciferase, luminescence, 24 h, GLP-1R form is constitutively active; activity change, negative = inhibition: at 38.3 µM (top of the series) unless noted; further: nearly all actives have a fitted effect of over 55% in size
UniProt P43220, sequence (P43220 whole entry, looked up): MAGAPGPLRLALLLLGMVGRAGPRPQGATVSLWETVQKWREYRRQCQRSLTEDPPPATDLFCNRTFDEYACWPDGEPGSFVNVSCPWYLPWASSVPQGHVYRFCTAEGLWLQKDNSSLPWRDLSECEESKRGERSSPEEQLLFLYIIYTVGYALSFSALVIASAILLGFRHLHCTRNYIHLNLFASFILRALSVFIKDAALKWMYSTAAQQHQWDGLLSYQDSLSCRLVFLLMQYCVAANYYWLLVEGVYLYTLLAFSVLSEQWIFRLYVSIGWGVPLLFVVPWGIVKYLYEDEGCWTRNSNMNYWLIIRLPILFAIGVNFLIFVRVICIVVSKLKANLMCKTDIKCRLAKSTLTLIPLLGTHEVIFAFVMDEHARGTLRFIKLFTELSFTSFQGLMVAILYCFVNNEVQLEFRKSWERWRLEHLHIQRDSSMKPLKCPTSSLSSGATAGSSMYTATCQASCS
How it was run: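 Cells are plated, allowed 12 hours at 37 deg C, then treated with compounds for 24 hr before luciferase detection reagent is added and luminescence is read after 12 min at room temperature. The HEK293 line carries constitutively active GLP-1R with a cAMP-responsive reporter.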
On the % scale 0 is the no-effect control and ±100 the full control effect; potency means the concentration at half of the fitted maximal effect; tags describe the fitted curve by direction and shape.

Structure (SMILES)	Potency	activity change, negative = inhibition
O=C(NCc1cccnc1)[C@@H]1CC=C[C@@H]2CCN(Cc3ccc(Cl)c(Cl)c3)C(=O)[C@@H]21	inconclusive [inhibitor, single point]	
COc1ccccc1NC(=O)CS(=O)(=O)c1cccc2nsnc12		inactive: 0.0828%
Cc1cccnc1C(NC(=O)C1CCN(Cc2ccc(Oc3ccccc3)cc2)CC1)c1ccccc1 (stereo not given)	inconclusive [inhibitor, partial curve, poor fit]	
C=CCN(C)NC(=S)Nc1ccccc1		inactive: -0.271%
Cc1c(C(=O)N(Cc2cccc(Cl)c2)Cc2ccco2)oc2ccccc12	inconclusive [inhibitor, single point]	
COc1ccc(/C=N/n2c(SC)nnc2-c2ccccc2)cc1C	inconclusive [inhibitor, single point]	
Cc1ccc(S(=O)(=O)CCC(=O)NCCC2=CCCCC2)cc1		inactive: -23.2%
CCCc1ccc(-c2cc(C(=O)NCCc3ccc(S(N)(=O)=O)cc3)c3ccccc3n2)cc1		inactive: -2.81%
Cc1ccc([N+](=O)[O-])cc1NC(=O)CCSc1ccc(Cl)cc1	inconclusive [inhibitor, partial curve]	
Cc1cccc(C(C)C)c1NC(=O)c1ccc(COc2ccc3c(C)cc(=O)oc3c2)cc1	inconclusive [inhibitor, full curve, poor fit]	
COc1ccc(C(=O)Oc2c(OC)cc(C(=S)N3CCOCC3)cc2OC)cc1OC		inactive: 10.7%
COc1cccc(NC2=CC(c3ccc(C(C)C)cc3)N(c3cccc(OC)c3)C2=O)c1 (stereo not given)	inconclusive [inhibitor, single point]	
O=C(O)CSc1nc2sc3c(c2c(=O)n1Cc1ccccc1)CCCCC3		inconclusive: -65% [inhibitor]
CCCOC(c1ccccc1)(c1ccccc1)C(Oc1nc(C)cc(C)n1)C(=O)O (stereo not given)	inconclusive [inhibitor, single point]	
CC(=O)Oc1ccccc1C(=O)N(C1CCCCC1)C1CCCCC1	inconclusive [inhibitor, partial curve, poor fit]	
COc1ccc(S(=O)(=O)N(C)c2ccc(C(=O)NC3CCCC3)cc2)cc1	inconclusive [inhibitor, single point]	
CN(CC(=O)Nc1ccccc1C(F)(F)F)C(=O)c1ccc(-c2ccc(Cl)cc2)o1	inconclusive [inhibitor, single point]	
CCN(Cc1ccccc1)C(=O)c1cccc(S(=O)(=O)N2CCN(c3ccccc3)CC2)c1	inconclusive [inhibitor, partial curve, poor fit]	
N#CCCn1nc(-c2ccccc2)cc1Nc1ccccc1NC(=O)c1cccs1	inconclusive [inhibitor, partial curve, poor fit]	
CCCCNC(=O)c1cc2nc(-c3ccc(OC)cc3)cc(C(F)(F)F)n2n1	inconclusive [inhibitor, partial curve, poor fit]	

Structure (SMILES)	Potency	activity change, negative = inhibition
CSc1ccc(/C=C(/NC(=O)c2ccccc2)C(=O)NCCCn2ccnc2)cc1		inactive: 12%
CN(CC(=O)Nc1ccc(Cl)c(Cl)c1)CC(=O)N1CCCCCC1	inconclusive [inhibitor, single point]	
COc1ccc(OC2(C)CCN(Cc3ccccc3OC(F)F)C2)cc1 (stereo not given)	inconclusive [inhibitor, single point]	
Cn1c(=O)[nH]c2nnc(-c3ccc(Cl)c(Cl)c3)nc2c1=O	inconclusive [inhibitor, full curve, poor fit]	
CC(C)CC(N)c1csc(NC(=O)Nc2ccccc2C(C)(C)C)n1 (stereo not given)	inconclusive [inhibitor, single point]	
Cc1cc(OCCN2CCN(S(=O)(=O)c3ccccc3F)CC2)ccc1C(C)C	inconclusive [inhibitor, partial curve, poor fit]	
O=c1oc2ccccc2c(Nc2cc3ccccc3cc2O)c1[N+](=O)[O-]	inconclusive [inhibitor, partial curve, poor fit]	
O=C(Cn1cc(SCc2ccc(Cl)cc2)c2ccccc21)N1CCCC1	inconclusive [inhibitor, partial curve, poor fit]	
Cc1ccccc1S(=O)(=O)Cc1ccc(C(=O)NCCN(Cc2ccccc2)C(C)C)o1	inconclusive [inhibitor, single point]	
C=CCn1c(-c2cc3cccc(OC)c3o2)n[nH]c1=S		inactive: -31.7%
O=c1c2ccccc2nc2n1C(CSCc1ccc(Cl)cc1)CS2 (stereo not given)	inconclusive [inhibitor, single point]	
O=C(NCCc1ccccc1)C(=O)NCCC1CCCCN1S(=O)(=O)c1ccccc1 (stereo not given)	inconclusive [inhibitor, single point]	
COc1ccc(N2CCN(CCCNC(=O)c3ccc(CS(=O)(=O)c4ccc(Cl)cc4)o3)CC2)cc1	inconclusive [inhibitor, single point]	
O=C(CNc1cccc2ccccc12)N/N=C/C=C/c1ccco1	inconclusive [inhibitor, partial curve, poor fit]	
Cc1ccc(Sc2ccc(CN3CCCCC3)cc2[N+](=O)[O-])cc1	inconclusive [inhibitor, full curve, poor fit]	
Cc1ccc(-c2noc(C3CCCN(C(=O)c4ccc(F)cc4F)C3)n2)cc1 (stereo not given)	inconclusive [inhibitor, single point]	
C/C(=N\NC(=S)Nc1ccc(C)cc1)c1cccc(N)c1	inconclusive [inhibitor, partial curve, poor fit]	
CC(=O)N1c2ccccc2CC1C(=O)N1CCN(c2cc(Cl)ccc2C)CC1 (stereo not given)	inconclusive [inhibitor, partial curve]	
NS(=O)(=O)c1ccc(NC(=O)C2Cc3ccccc3C(=O)O2)cc1 (stereo not given)		inactive: 18.6%
COCCNC(=O)C1c2ccccc2C(=O)N(CCOC)C1c1ccc(F)cc1 (stereo not given)		inactive: -0.292%
